PMC12040169 (PLOS Biology, 2025)
This is one part of the list.

Each compound was assayed on T1, C. trachomatis L2/434/Bu expressing GFP (CTL2-GFP). Conditions: total inclusion area; 28.5 h, 10 µM; inhibitor.
T1 construct: L2/434/Bu GFP intracellular growth in HeLa cells
Parameters: species or system HeLa; C. trachomatis total inclusion area by high-content imaging, normalised to DMSO
Outline: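 High-content imaging followed the bulk GFP/resorufin measurement: fixed, Hoechst-stained cells were scored for GFP inclusions and host nuclei per well. Total inclusion area and count served as growth proxies, nuclei number as the viability proxy. MIC calculation matched the bulk assay.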

`O=C(CN1CCC(NC(=O)c2ccccc2)CC1)Nc1ccccc1` [CBK074716] was tested. Which “% of control remaining” value did it give?
Its value is 112.746.

`CCCc1cc(C(=O)NC(C)(C)CN2CCCC(C)C2)[nH]n1` (stereo not drawn) [CBK282467] was tested. Which “% of control remaining” value did it give?
Its value is 92.8189.

Which “% of control remaining” value does the source give for `COc1ccccc1/C=C/c1nn2c(C(C)C)nnc2s1` [CBK269501] here?
Its value is 107.913.

`O=C1c2cccc3cccc(c23)C(=O)N1CCN1CCN(CC(O)COc2ccc(Cl)cc2Cl)CC1` (stereo not drawn) [CBK264881] was tested. Which “% of control remaining” value did it give?
The value was 107.22.

With `Cc1nn2c(C3CCCNC3)ccnc2c1-c1ccc(F)cc1` (stereo not drawn) [CBK284139] as the compound, how does the “% of control remaining” value read?
The value was 75.9891.

Which “% of control remaining” value does the source give for `CN1CCN(C(=O)c2ccsc2NS(=O)(=O)Cc2ccccc2)CC1` [CBK042266] here?
The value was 83.6013.

With `O=C(CSc1n[nH]c(=O)[nH]c1=O)N/N=C/c1cccs1` [CBK263508] as the compound, how does the “% of control remaining” value read?
Its value is 86.8156.

Which “% of control remaining” value does the source give for `O=C(CN1CCN(S(=O)(=O)N2CCCCC2)CC1)Nc1ccc(Br)cc1` [CBK269515] here?
The value was 89.2403.

How did the “% of control remaining” value turn out when `CN(Cc1ccsc1)C(=O)c1cccc(S(=O)(=O)NCC2CCCO2)c1` (stereo not drawn) [CBK304232] was run?
The value was 43.3852.

How did the “% of control remaining” value turn out when `CCCC(=O)N1CCC(c2nnc(-c3ccsc3)o2)CC1` [CBK283377] was run?
The value was 97.1983.

`COc1ccc(C(=O)N[C@H]2C[C@H]3C(=O)NC[C@@H](CCC(=O)N4CCN(C)CC4)N3C2)cc1` [CBK289016] was tested. Which “% of control remaining” value did it give?
Its value is 121.49.

For `Cc1ccc(C(=O)N2CCN(S(=O)(=O)c3sc(C(=O)O)c(C)c3C(=O)O)CC2)cc1` [CBK297120], which “% of control remaining” value is on record?
The value was 48.9487.

How did the “% of control remaining” value turn out when `CC1CCCCN1Cc1nc2c(c(=O)n(C)c(=O)n2C)n1Cc1ccccc1` (stereo not drawn) [CBK269203] was run?
Its value is 56.2248.

How did the “% of control remaining” value turn out when `CC(C)(C)c1cc(NC(=O)CSc2ccc(S(=O)(=O)N3CCCC3)cn2)n(-c2ccccc2)n1` [CBK297099] was run?
Its value is 90.6726.

With `Cc1ccccc1Cc1cccc(C2CCN(CC(=O)Nc3nccs3)CC2)n1` [CBK286089] as the compound, how does the “% of control remaining” value read?
The value was 81.3615.

Which “% of control remaining” value does the source give for `Cc1oc(-c2ccccc2)cc1C(=O)Nc1ccc(N2CCNCC2)nc1` [CBK034127T] here?
The value was 63.734.

`Cc1ccc(Cn2nc(C)c(C(=O)OCc3cc(=O)n4ccccc4n3)c2Cl)cc1` [CBK297550] was tested. Which “% of control remaining” value did it give?
Its value is 54.9111.

Which “% of control remaining” value does the source give for `Cc1cc(C)n(-c2cc(N3CCN(S(=O)(=O)Cc4ccccc4)CC3)ccc2[N+](=O)[O-])n1` [CBK264407] here?
The value was 94.0444.

How did the “% of control remaining” value turn out when `CCOc1ccc(S(=O)(=O)N2CCCN(CCCC#N)CC2)c2cccnc12` [CBK062935] was run?
Its value is 91.3711.

Which “% of control remaining” value does the source give for `Cc1cc(NC(=O)C(C)N(C)CCOc2ccccc2Cl)no1` (stereo not drawn) [CBK304466] here?
The value was 64.2174.

Which “% of control remaining” value does the source give for `COc1cccc(CN2CCN(C(=O)C3(C)CC3(Cl)Cl)CC2)c1` (stereo not drawn) [CBK268121] here?
Its value is 63.2695.

How did the “% of control remaining” value turn out when `CSc1ccccc1NC(=O)c1cccn(Cc2ccc(C)cc2)c1=O` [CBK294426] was run?
The value was 103.47.

Which “% of control remaining” value does the source give for `O=C(CSC1=NC(=O)C(Cc2ccccc2)C(=O)N1)Nc1ncccn1` (stereo not drawn) [CBK263906] here?
Its value is 73.8269.

How did the “% of control remaining” value turn out when `COc1ccc(I)cc1S(=O)(=O)NCc1ccccn1` [CBK264019] was run?
Its value is 82.4604.

Which “% of control remaining” value does the source give for `c1ccc(-c2nc3ccc(Oc4ccc5nc(-c6ccccn6)c(-c6ccccn6)nc5c4)cc3nc2-c2ccccn2)nc1` [CBK261964] here?
Its value is 93.8023.

Which “% of control remaining” value does the source give for `CCn1cncc1CN1CCCC(c2cc3cccnc3[nH]2)C1` (stereo not drawn) [CBK284993] here?
The value was 103.844.

`CN(C)CCCC(O)(c1ccccc1)c1ccccc1` [CBK012599] was tested. Which “% of control remaining” value did it give?
Its value is 67.5219.

Which “% of control remaining” value does the source give for `CC(NC(=O)N(CCCN)Cc1c[nH]c(-c2ccccc2)n1)c1cccc2ccccc12` (stereo not drawn) [CBK034672C] here?
Its value is 71.5124.

`CCC(C)(C)c1ccc(S(=O)(=O)N(C)CCC#N)cc1` [CBK043395] was tested. Which “% of control remaining” value did it give?
The value was 106.454.

For `O=C(NCCN1CCOCC1)c1ccc(Nc2cncc(-c3ccc(O)cc3)n2)cc1` [CBK115692], which “% of control remaining” value is on record?
Its value is 92.499.

Which “% of control remaining” value does the source give for `COc1ncnc(C)c1-c1cc(C)c(OC)c(C)c1` [CBK306852] here?
The value was 112.424.

How did the “% of control remaining” value turn out when `COc1cc(C2=NS(=O)(=O)NC3=C2CCCC3)cc(OC)c1OC` [CBK010423] was run?
Its value is 58.1338.

With `Cc1ccc(S(=O)(=O)Nc2cccc(NC(=O)c3ccco3)c2)cc1C(=O)O` [CBK296638] as the compound, how does the “% of control remaining” value read?
Its value is 110.888.

Which “% of control remaining” value does the source give for `FC(F)Oc1ccc(-c2ccnc(S)n2)cc1` [CBK288385] here?
Its value is 57.0396.

`Cc1nc(C2CC(=O)N(Cc3ccccn3)C2)n(-c2ccccc2F)n1` (stereo not drawn) [CBK306895] was tested. Which “% of control remaining” value did it give?
Its value is 90.1575.

How did the “% of control remaining” value turn out when `O=C(Nc1nc2c(s1)CCCCC2)C1CCN(S(=O)(=O)c2ccc(F)cc2)C1` (stereo not drawn) [CBK285708] was run?
Its value is 94.6352.

`CC(=O)c1ccccc1NC(=O)c1cc2ccc(F)cc2nc1C` [CBK297929] was tested. Which “% of control remaining” value did it give?
Its value is 65.3756.

With `O=[N+]([O-])c1ccc(CN2CCC(Oc3nccnc3OCc3cccnc3)CC2)cc1` [CBK083162T] as the compound, how does the “% of control remaining” value read?
Its value is 69.6253.

Which “% of control remaining” value does the source give for `Cc1ccccc1-c1cc(C(=O)NCCCn2cc(Br)cn2)c2ccccc2n1` [CBK267758] here?
Its value is 84.8085.
